{
  "source": "the supplement of paper PMC8728848",
  "binders": {"B1": {"name": "LSL-150 (Laetiporus sulphureus), Q7Z8V1 (protein)", "chain": "MTDIYIPPEGLYFRLLGFASRQVIFARNSPSPDVGLSPVNDQATDQYFSLIYGTGEHAGLYAIKSKATGKVLFSRRPAEPYVGQIDGDGRYPDNWFKIEPGKTYLSKYFRLVQPSTGTALVSRTHLQPYFWNHPQTEVFDDQYFTFLFEDHHHHHH"}},
  "assay_in_all_cases": "glycan array binding signal (z-score within array); higher = stronger binding",
  "conditions_in_all_cases": "glycan notation: IUPAC condensed, linker removed",
  "key": {"[1]": {"biological_target": "Gal(b1-4)GalNAc(b1-3)[Fuc(a1-2)]Gal(b1-4)GlcNAc", "how_it_was_run": "(§1)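 Columns mapping to the same glycan were averaged after glycan names were converted to IUPAC-condensed notation. The data come from 3228 arrays in the Consortium for Functional Glycomics database, limited to those with an available protein sequence. Binding is reported as a within-array Z-score averaged across arrays of one protein sequence and across linkers.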"}, "Gal(b1-4)Glc": {"biological_target": "Gal(b1-4)Glc", "how_it_was_run": "as §1"}, "Gal(b1-4)Glc6S": {"biological_target": "Gal(b1-4)Glc6S", "how_it_was_run": "as §1"}, "Gal(b1-4)GlcNAc": {"biological_target": "Gal(b1-4)GlcNAc", "how_it_was_run": "as §1"}, "[2]": {"biological_target": "Gal(b1-4)GlcNAc(a1-6)Gal(b1-4)GlcNAc", "how_it_was_run": "as §1"}, "Gal(b1-4)GlcNAc(b1-2)Man": {"biological_target": "Gal(b1-4)GlcNAc(b1-2)Man", "how_it_was_run": "as §1"}, "[3]": {"biological_target": "Gal(b1-4)GlcNAc(b1-2)Man(a1-3)Man(b1-4)GlcNAc(b1-4)GlcNAc", "how_it_was_run": "as §1"}, "[4]": {"biological_target": "Gal(b1-4)GlcNAc(b1-2)Man(a1-3)[Gal(b1-4)GlcNAc(b1-2)Man(a1-6)]Man(b1-4)GlcNAc(b1-4)GlcNAc", "how_it_was_run": "as §1"}, "[5]": {"biological_target": "Gal(b1-4)GlcNAc(b1-2)Man(a1-3)[Gal(b1-4)GlcNAc(b1-2)Man(a1-6)]Man(b1-4)GlcNAc(b1-4)[Fuc(a1-6)]GlcNAc", "how_it_was_run": "as §1"}, "[6]": {"biological_target": "Gal(b1-4)GlcNAc(b1-2)Man(a1-3)[Gal(b1-4)GlcNAc(b1-2)Man(a1-6)][Gal(b1-4)GlcNAc(b1-4)]Man(b1-4)GlcNAc(b1-4)[Fuc(a1-6)]GlcNAc", "how_it_was_run": "as §1"}, "[7]": {"biological_target": "Gal(b1-4)GlcNAc(b1-2)Man(a1-3)[Gal(b1-4)GlcNAc(b1-2)Man(a1-6)][GlcNAc(b1-4)]Man(b1-4)GlcNAc(b1-4)[Fuc(a1-6)]GlcNAc", "how_it_was_run": "as §1"}, "[8]": {"biological_target": "Gal(b1-4)GlcNAc(b1-2)Man(a1-3)[GlcNAc(b1-2)Man(a1-6)]Man(b1-4)GlcNAc(b1-4)GlcNAc", "how_it_was_run": "as §1"}, "[9]": {"biological_target": "Gal(b1-4)GlcNAc(b1-2)Man(a1-3)[GlcNAc(b1-4)][Gal(b1-4)GlcNAc(b1-2)Man(a1-6)]Man(b1-4)GlcNAc(b1-4)GlcNAc", "how_it_was_run": "as §1"}, "[10]": {"biological_target": "Gal(b1-4)GlcNAc(b1-2)Man(a1-3)[Man(a1-6)]Man(b1-4)GlcNAc(b1-4)GlcNAc", "how_it_was_run": "as §1"}, "[11]": {"biological_target": "Gal(b1-4)GlcNAc(b1-2)Man(a1-6)Man(b1-4)GlcNAc(b1-4)GlcNAc", "how_it_was_run": "as §1"}, "[12]": {"biological_target": "Gal(b1-4)GlcNAc(b1-2)Man(a1-6)[GlcNAc(b1-2)Man(a1-3)]Man(b1-4)GlcNAc(b1-4)GlcNAc", "how_it_was_run": "as §1"}, "[13]": {"biological_target": "Gal(b1-4)GlcNAc(b1-2)Man(a1-6)[Man(a1-3)]Man(b1-4)GlcNAc(b1-4)GlcNAc", "how_it_was_run": "as §1"}, "[14]": {"biological_target": "Gal(b1-4)GlcNAc(b1-2)[Gal(b1-4)GlcNAc(b1-4)]Man(a1-3)[Gal(b1-4)GlcNAc(b1-2)Man(a1-6)]Man(b1-4)GlcNAc(b1-4)GlcNAc", "how_it_was_run": "as §1"}, "[15]": {"biological_target": "Gal(b1-4)GlcNAc(b1-2)[Gal(b1-4)GlcNAc(b1-4)]Man(a1-3)[Gal(b1-4)GlcNAc(b1-2)[Gal(b1-4)GlcNAc(b1-6)]Man(a1-6)]Man(b1-4)GlcNAc(b1-4)GlcNAc", "how_it_was_run": "as §1"}, "[16]": {"biological_target": "Gal(b1-4)GlcNAc(b1-2)[Gal(b1-4)GlcNAc(b1-4)]Man(a1-3)[GlcNAc(b1-4)][Gal(b1-4)GlcNAc(b1-2)Man(a1-6)]Man(b1-4)GlcNAc(b1-4)GlcNAc", "how_it_was_run": "as §1"}, "[17]": {"biological_target": "Gal(b1-4)GlcNAc(b1-2)[Gal(b1-4)GlcNAc(b1-4)]Man(a1-3)[GlcNAc(b1-4)][Gal(b1-4)GlcNAc(b1-2)[Gal(b1-4)GlcNAc(b1-6)]Man(a1-6)]Man(b1-4)GlcNAc(b1-4)GlcNAc", "how_it_was_run": "as §1"}, "[18]": {"biological_target": "Gal(b1-4)GlcNAc(b1-2)[Gal(b1-4)GlcNAc(b1-6)]Man(a1-6)[Gal(b1-4)GlcNAc(b1-2)Man(a1-3)]Man(b1-4)GlcNAc(b1-4)GlcNAc", "how_it_was_run": "as §1"}},
  "note": "The list shows a part of the results.",
  "data": [
    {"binder": "B1", "values": [
      {"measurement": "glycan array binding signal (z-score)", "setting": "[1]", "value": -0.21},
      {"measurement": "glycan array binding signal (z-score)", "setting": "Gal(b1-4)Glc", "value": -0.212},
      {"measurement": "glycan array binding signal (z-score)", "setting": "Gal(b1-4)Glc6S", "value": -0.202},
      {"measurement": "glycan array binding signal (z-score)", "setting": "Gal(b1-4)GlcNAc", "value": -0.203},
      {"measurement": "glycan array binding signal (z-score)", "setting": "[2]", "value": -0.207},
      {"measurement": "glycan array binding signal (z-score)", "setting": "Gal(b1-4)GlcNAc(b1-2)Man", "value": -0.198},
      {"measurement": "glycan array binding signal (z-score)", "setting": "[3]", "value": -0.207},
      {"measurement": "glycan array binding signal (z-score)", "setting": "[4]", "value": -0.209},
      {"measurement": "glycan array binding signal (z-score)", "setting": "[5]", "value": -0.212},
      {"measurement": "glycan array binding signal (z-score)", "setting": "[6]", "value": -0.211},
      {"measurement": "glycan array binding signal (z-score)", "setting": "[7]", "value": -0.208},
      {"measurement": "glycan array binding signal (z-score)", "setting": "[8]", "value": -0.21},
      {"measurement": "glycan array binding signal (z-score)", "setting": "[9]", "value": -0.209},
      {"measurement": "glycan array binding signal (z-score)", "setting": "[10]", "value": -0.2},
      {"measurement": "glycan array binding signal (z-score)", "setting": "[11]", "value": -0.211},
      {"measurement": "glycan array binding signal (z-score)", "setting": "[12]", "value": -0.214},
      {"measurement": "glycan array binding signal (z-score)", "setting": "[13]", "value": -0.209},
      {"measurement": "glycan array binding signal (z-score)", "setting": "[14]", "value": -0.168},
      {"measurement": "glycan array binding signal (z-score)", "setting": "[15]", "value": -0.193},
      {"measurement": "glycan array binding signal (z-score)", "setting": "[16]", "value": -0.195},
      {"measurement": "glycan array binding signal (z-score)", "setting": "[17]", "value": -0.206},
      {"measurement": "glycan array binding signal (z-score)", "setting": "[18]", "value": -0.198}
    ]}
  ]
}
